The whole screen tested about 310,000 compounds, of which about 2,200 (0.71%) showed an effect of 50% or more. Effects have a minus sign here. The list shows a part of the results.

human ether-à-go-go-related gene (hERG) potassium channel, sequence (Q12809 whole entry, looked up): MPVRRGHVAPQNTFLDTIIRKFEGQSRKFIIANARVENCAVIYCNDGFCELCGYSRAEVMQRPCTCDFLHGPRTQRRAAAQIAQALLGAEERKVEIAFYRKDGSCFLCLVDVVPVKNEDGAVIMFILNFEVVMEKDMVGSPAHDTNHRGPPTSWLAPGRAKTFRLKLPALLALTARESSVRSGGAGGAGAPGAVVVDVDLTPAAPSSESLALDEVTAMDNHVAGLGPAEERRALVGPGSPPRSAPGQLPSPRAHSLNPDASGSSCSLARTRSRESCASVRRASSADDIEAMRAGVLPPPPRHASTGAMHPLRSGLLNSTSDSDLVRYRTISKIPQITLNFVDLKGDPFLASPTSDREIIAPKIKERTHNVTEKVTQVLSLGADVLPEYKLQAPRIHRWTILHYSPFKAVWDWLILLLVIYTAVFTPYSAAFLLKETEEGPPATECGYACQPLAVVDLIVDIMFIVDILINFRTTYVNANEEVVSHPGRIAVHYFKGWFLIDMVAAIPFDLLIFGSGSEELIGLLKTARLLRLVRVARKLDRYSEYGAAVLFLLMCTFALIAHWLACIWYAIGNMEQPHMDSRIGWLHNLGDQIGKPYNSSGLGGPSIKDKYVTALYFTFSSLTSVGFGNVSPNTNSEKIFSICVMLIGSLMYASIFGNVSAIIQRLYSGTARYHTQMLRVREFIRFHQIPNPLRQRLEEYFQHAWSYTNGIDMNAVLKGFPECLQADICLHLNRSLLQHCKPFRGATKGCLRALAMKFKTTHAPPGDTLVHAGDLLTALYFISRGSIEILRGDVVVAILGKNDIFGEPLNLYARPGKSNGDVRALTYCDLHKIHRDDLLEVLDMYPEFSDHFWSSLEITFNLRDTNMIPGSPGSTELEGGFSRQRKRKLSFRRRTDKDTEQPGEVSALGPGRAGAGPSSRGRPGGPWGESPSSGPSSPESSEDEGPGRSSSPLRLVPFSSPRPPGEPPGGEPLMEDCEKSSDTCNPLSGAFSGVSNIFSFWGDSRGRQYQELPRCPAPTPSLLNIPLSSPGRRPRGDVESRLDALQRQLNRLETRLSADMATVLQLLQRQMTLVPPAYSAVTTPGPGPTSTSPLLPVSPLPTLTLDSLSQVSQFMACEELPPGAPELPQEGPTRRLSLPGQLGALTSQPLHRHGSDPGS

This test addresses human ether-à-go-go-related gene (hERG) potassium channel (human, UniProt Q12809). The test can be described thus: primary screen, population patch clamp on CHO cells stably expressing hERG.
Regarding `CC(C)NS(=O)(=O)c1ccc(NC(=O)NC2CCCCC2)cc1`, the “hERG current change (%, negative = inhibition) at 1uM” value is 1.42%.
The value for `Cc1ccc(OCC(=O)N2CCN(S(=O)(=O)c3ccc(Cl)s3)CC2)cc1C` was 10.6%.
Then `Cc1onc(-c2ccccc2Cl)c1C(=O)OCC(=O)c1ccc2c(c1)OCCO2`, with 12.8%.
Then `O=C(Nc1nccs1)c1cc(Cl)ccc1[N+](=O)[O-]`, with 6.59%; and `COc1ccc(N=C2NC(=O)C(CC(=O)NCCc3ccc(OC)c(OC)c3)S2)cc1` (centres unmarked), with -0.595%.
For `COc1ccc(-n2c(-c3ccco3)nc3ccccc3c2=O)cc1`, the “hERG current change (%, negative = inhibition) at 1uM” value worked out at 8.95%.
Then `O=C(C1CCN(c2ncnc3c2sc2cccc(F)c23)CC1)N1CCOCC1`, with -6.76%.
The value for `COc1ccc(C(=O)N/C(=C\c2ccc3c(c2)OCO3)C(=O)Nc2cccc(C(=O)O)c2)cc1` was 7.13%.
The value for `CC(C)n1c(Nc2ccccc2)nc2ccccc21` was 2.62%; that for `CCOC(=O)c1cc(C(=O)OCC)c(=O)[nH]c1N1CCCC1` was 3.97%.
`O=C(COC(=O)C1CC1)NC(=O)c1ccccc1`: the “hERG current change (%, negative = inhibition) at 1uM” value is listed as -4.44%.
On to `O=C(Nc1ccccc1Oc1ccccc1)c1ccccc1F`, for which the “hERG current change (%, negative = inhibition) at 1uM” value was found to be 5.6%.
The value for `COc1cc2c(cc1NC(=O)CSc1nnnn1-c1ccccc1)oc1ccccc12` was -5.22%.
`Cc1ccc2nc(NC(=O)C3CC(=O)N(Cc4ccco4)C3)sc2c1` (centres unmarked): the “hERG current change (%, negative = inhibition) at 1uM” value is 16.8%.
As for `O=C(N/N=C/c1cccc(O)c1)c1cc(-c2ccccc2)nc2ccccc12`, the “hERG current change (%, negative = inhibition) at 1uM” value is 14.2%.
The value for `CC1=CC(C)(C)N(C(=O)c2ccccc2)c2ccccc21` was -1.53%; that for `Oc1ccc(/C=N/Nc2ccnc3cc(Cl)ccc23)c(O)c1O` was 8.22%.
Then `COc1ccc(NC(=O)NCCN2CCc3ccccc3C2)cc1`, with -1.55%.
Then `O=C(NNC(=O)c1ccncc1)c1ccncc1`, with 20.8%; and `O=C(O)CCC(=O)Nc1nc2ccc([N+](=O)[O-])cc2s1`, with 7.91%.
Take `COc1ccc(N2CCN(C(=O)CN(Cc3ccccc3)S(C)(=O)=O)CC2)cc1`: the “hERG current change (%, negative = inhibition) at 1uM” value was -3.72%.
The value for `COc1ccc(OC)c(S(=O)(=O)N2CCC(c3nc4ccccc4[nH]3)CC2)c1` was -7.22%; that for `Cc1ccc(NC(=O)C(C)OC(=O)/C=C/c2ccccc2)cc1` (centres unmarked) was 9.66%.
Then `COc1ccccc1N1CCN(C2CCCN(C(=O)c3ccsc3)C2)CC1` (centres unmarked), with 1.98%; and `O=C(/C=C/c1cc([N+](=O)[O-])ccc1OC(F)F)Nc1cccc2ccccc12`, with 11.8%; and `CCCCOCC(O)CN1CCN(C(C)=O)CC1.O=C(O)C(=O)O` (centres unmarked), with 14.8%.
The value for `CC1CCCN(C(=O)CCNS(=O)(=O)c2ccc3c(c2)c(=O)n(C)c(=O)n3C)C1` (centres unmarked) was -4.34%; that for `Cn1c(=O)oc2cc(S(=O)(=O)NC(Cc3ccccc3)C(=O)N3CCCCC3)ccc21` (centres unmarked) was 10.9%; that for `CCOc1ccc(N2C(=O)CC(NCC3CCCO3)C2=O)cc1` (centres unmarked) was -0.391%.
With `Cc1c(C(=O)NCc2ccccc2)cnn1-c1ccccc1`, the “hERG current change (%, negative = inhibition) at 1uM” value turned out to be 3.83%.
The value for `CC(=O)Nc1ccc(S(=O)(=O)N2CCN(C(=O)N3CCOCC3)CC2)cc1` was 8.94%.
Then `COc1ccccc1OCC(=O)Nc1nnc(C2CCCC2)s1`, with 16.3%.
Take `COc1cc(C(C)=O)ccc1OCC(=O)OCCCOC(=O)COc1ccc(C(C)=O)cc1OC`: the “hERG current change (%, negative = inhibition) at 1uM” value worked out at 13.8%.
With `COc1ccc2cc(C(=O)N3CCCC(Nc4ccc(F)cc4)C3)n(C)c2c1` (centres unmarked), the “hERG current change (%, negative = inhibition) at 1uM” value came out at 6.16%.
The value for `Cc1ccc(CN2CCNC(=O)C2CC(=O)NCc2csc(C(C)C)n2)cc1` (centres unmarked) was 0.784%; that for `CCCCN(C(=O)CSCc1ccc(C)cc1)c1c(N)n(CCC)c(=O)[nH]c1=O` was 0.707%; that for `CC(C)c1ccccc1NC(=O)COC(=O)c1cc([N+](=O)[O-])ccc1N1CCOCC1` was 10.4%.
The value for `CCOC(=O)c1ccccc1NC(=O)CSc1ccc(-c2cccnc2)nn1` was -18.2%; that for `O=C(O)c1nccnc1C(=O)Nc1ccc(Cl)cc1Cl` was 17.4%; that for `N#Cc1c(Cn2cncn2)nc(=O)n(-c2ccc(Cl)cc2)c1N` was 17.1%.
`CCOc1ccccc1OCC(=O)Nc1ccc(Cl)cc1C(=O)c1ccccc1`: the “hERG current change (%, negative = inhibition) at 1uM” value came out at 15.4%.
Then `NS(=O)(=O)c1ccc(Nc2ncccc2[N+](=O)[O-])cc1`, with 20.7%.
With `C=CCOc1ccc(/C=N/n2cncn2)cc1OC`, the “hERG current change (%, negative = inhibition) at 1uM” value worked out at 0.678%.
The value for `CCN1CCCC1CNS(=O)(=O)c1ccc(F)c(Cl)c1` (centres unmarked) was 10.8%.

The values are drawn from paper PMC4336329 (PLoS ONE, 2015).
